The list shows a part of the results.

This is an account of results in the antibiotic and cytotoxicity screens of Wong et al. (2023).

In this assay the test system is HSkMC (human skeletal muscle cells). In words: cytotoxicity call (relative viability < 0.9). The conditions noted are these: 10 µM.
As to `COc1ccc(S(=O)(=O)N(C)C[C@@H]2OCCCC[C@H](C)Oc3ccc(NS(=O)(=O)c4ccc(Cl)cc4)cc3C(=O)N([C@@H](C)CO)C[C@H]2C)cc1`, the cytotoxicity call is “inactive”. For the compound `C[C@@H]1CCCCO[C@@H](CN(C)CC2CCCCC2)[C@H](C)CN([C@@H](C)CO)C(=O)c2cc(NS(=O)(=O)c3cccs3)ccc2O1`, the cytotoxicity call is “inactive”. With `CO[C@@H]1CN(C)C(=O)c2cc(NC(=O)Nc3ccc4c(c3)OCO4)ccc2OC[C@@H](C)N(C(C)=O)C[C@H]1C` the entry was “inactive”; with `Cc1cc(C(=O)Nc2cccc3c2O[C@@H](CN(C)S(C)(=O)=O)[C@@H](C)CN([C@@H](C)CO)C3=O)n(C)n1`, “inactive”; with `COc1ccc(NC(=O)Nc2ccc3c(c2)C(=O)N([C@H](C)CO)C[C@H](C)[C@@H](CN(C)C(=O)Nc2cccc4ccccc24)OCCCC[C@H](C)O3)cc1`, “inactive”. With `C[C@H]1CN([C@@H](C)CO)C(=O)c2cccc(NC(=O)Nc3ccc(C(F)(F)F)cc3)c2O[C@H]1CN(C)Cc1ccc(Cl)c(Cl)c1` the entry was “active”; with `COCC(=O)Nc1ccc2c(c1)OC[C@@H](C)N(C(=O)Cc1ccccn1)C[C@@H](C)[C@@H](OC)CN(C)C2=O`, “inactive”; with `COC(=O)C(CC#Cc1ccc2c(c1)[C@]1(C(=O)N2)[C@H](c2ccc(O)cc2)N2[C@H](c3ccccc3)[C@H](c3ccccc3)OC(=O)[C@H]2[C@@H]1C(=O)NC[C@H](O)c1ccccc1)C(=O)OC`, “inactive”. With `COc1ccc(S(=O)(=O)N(C)C[C@H]2Oc3ccc(NC(=O)Cn4cnnn4)cc3CC(=O)N([C@@H](C)CO)C[C@@H]2C)cc1` the entry was “inactive”.
